These are yes or no findings as the source states them, for the method shown. Some binding calls cover weakened binding; strength is not graded here. For part of these data: Where a sequence is shown, tags or fusion partners need not be part of it. Values belong to the molecule of their own block, whether it stands above or below them.
Tests used:
[1] = molecular target: T1, human AdipoR1 expressed on HEK293 cells (human) (UniProt Q96A54); experiment: cell-based binding, bound adiponectin detected by Western blot of the cell lysate; mouse or human serum diluted in serum-free DMEM applied to transiently transfected HEK293 cells, 4°C, 1 hr, washed three times; lysates on SDS-PAGE or native-PAGE
T1 sequence: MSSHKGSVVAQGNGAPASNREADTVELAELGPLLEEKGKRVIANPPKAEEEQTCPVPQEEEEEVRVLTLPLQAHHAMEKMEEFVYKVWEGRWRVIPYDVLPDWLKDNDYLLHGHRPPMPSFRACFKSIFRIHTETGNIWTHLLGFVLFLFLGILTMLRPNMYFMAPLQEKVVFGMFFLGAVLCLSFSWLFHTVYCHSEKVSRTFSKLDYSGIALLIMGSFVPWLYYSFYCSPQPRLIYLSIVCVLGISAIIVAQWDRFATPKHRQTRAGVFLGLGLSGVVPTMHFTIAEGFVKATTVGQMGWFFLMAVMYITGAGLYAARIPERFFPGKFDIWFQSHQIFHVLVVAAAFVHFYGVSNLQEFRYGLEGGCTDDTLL

Chains of the proteins cited; added tags and fusions are not shown. Residues count along the entry.
UniProt P14211, residues 18-416: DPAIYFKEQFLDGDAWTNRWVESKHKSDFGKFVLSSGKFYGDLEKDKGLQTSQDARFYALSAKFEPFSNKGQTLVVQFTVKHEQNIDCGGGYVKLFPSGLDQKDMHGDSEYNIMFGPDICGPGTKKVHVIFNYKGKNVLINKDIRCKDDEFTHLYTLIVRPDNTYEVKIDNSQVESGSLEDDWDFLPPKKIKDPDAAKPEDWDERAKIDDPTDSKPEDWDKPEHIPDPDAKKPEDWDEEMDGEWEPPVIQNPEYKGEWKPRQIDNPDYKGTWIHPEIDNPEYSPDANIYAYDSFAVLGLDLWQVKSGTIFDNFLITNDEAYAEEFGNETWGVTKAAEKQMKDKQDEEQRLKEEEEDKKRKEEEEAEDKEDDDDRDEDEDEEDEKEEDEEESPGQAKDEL
UniProt Q15848, residues 19-244: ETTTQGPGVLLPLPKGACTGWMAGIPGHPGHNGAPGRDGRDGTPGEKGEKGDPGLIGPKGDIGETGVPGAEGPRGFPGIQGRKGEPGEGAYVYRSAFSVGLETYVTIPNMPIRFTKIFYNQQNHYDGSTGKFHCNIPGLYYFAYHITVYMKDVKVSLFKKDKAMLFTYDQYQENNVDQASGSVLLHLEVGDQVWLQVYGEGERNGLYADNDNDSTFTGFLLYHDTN

[2] = molecular target: T2, human T-cadherin expressed on HEK293 cells (human) (UniProt P55290); experiment: as above
T2 sequence: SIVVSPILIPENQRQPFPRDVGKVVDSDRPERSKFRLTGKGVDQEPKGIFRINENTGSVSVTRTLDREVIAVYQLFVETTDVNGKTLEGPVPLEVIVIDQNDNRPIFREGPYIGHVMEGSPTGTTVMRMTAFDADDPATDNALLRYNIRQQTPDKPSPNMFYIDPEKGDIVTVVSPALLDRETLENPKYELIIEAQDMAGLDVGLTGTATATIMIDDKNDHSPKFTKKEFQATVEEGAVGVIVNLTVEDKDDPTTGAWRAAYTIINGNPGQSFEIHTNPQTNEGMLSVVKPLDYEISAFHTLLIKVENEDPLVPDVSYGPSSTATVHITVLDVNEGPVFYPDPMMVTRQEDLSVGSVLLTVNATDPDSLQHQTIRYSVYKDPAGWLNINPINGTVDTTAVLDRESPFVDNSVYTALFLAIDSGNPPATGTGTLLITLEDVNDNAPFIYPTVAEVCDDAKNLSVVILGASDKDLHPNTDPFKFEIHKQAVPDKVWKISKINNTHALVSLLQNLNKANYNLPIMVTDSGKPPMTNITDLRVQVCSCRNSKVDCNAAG

[3] = molecular target: human calreticulin expressed in HEK293 cells (human) (UniProt P27797); experiment: as above
[4] = molecular target: mouse calreticulin expressed in HEK293 cells (mouse) (UniProt P14211); experiment: cell-based binding, bound adiponectin detected by Western blot of the cell lysate; adiponectin purified from mouse serum or recombinant adiponectin applied to transiently transfected HEK293 cells, 4°C, 1 hr; only the binder purified
[5] = molecular target: T3, mouse T-cadherin expressed on HEK293 cells (mouse) (UniProt Q9WTR5); experiment: as above
T3 sequence: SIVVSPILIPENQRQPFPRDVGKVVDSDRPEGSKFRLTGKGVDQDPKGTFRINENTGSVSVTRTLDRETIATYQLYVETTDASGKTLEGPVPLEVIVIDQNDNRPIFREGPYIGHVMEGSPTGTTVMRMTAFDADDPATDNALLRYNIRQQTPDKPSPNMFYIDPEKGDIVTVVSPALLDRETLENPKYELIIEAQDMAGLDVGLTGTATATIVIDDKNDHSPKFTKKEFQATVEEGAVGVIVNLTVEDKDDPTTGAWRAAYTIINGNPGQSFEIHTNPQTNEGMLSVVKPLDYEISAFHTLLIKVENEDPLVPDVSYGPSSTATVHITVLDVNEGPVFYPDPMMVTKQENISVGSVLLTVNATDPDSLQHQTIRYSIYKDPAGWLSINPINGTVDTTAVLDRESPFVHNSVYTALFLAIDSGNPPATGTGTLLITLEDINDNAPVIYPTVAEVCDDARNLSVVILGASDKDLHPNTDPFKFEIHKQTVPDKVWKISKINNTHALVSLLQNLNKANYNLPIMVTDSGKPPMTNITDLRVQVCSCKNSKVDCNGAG

[6] = molecular target: T4, PA-tagged mouse T-cadherin transiently expressed on HEK293 cells (mouse) (UniProt Q9WTR5); experiment: cell-based binding, bound adiponectin detected by Western blot of the cell lysate; mouse or human serum diluted in serum-free DMEM applied to transiently transfected HEK293 cells, 4°C, 1 hr, washed three times; lysates on SDS-PAGE or native-PAGE
T4 sequence: T3 sequence

[7] = molecular target: PA-tagged mouse calreticulin transiently expressed in HEK293 cells (mouse) (UniProt P14211); experiment: as above
[8] = molecular target: mouse calreticulin expressed in HEK293 cells (mouse) (UniProt P14211); experiment: as above
[9] = molecular target: T3, mouse T-cadherin expressed on HEK293 cells (mouse); experiment: as above
[10] = molecular target: T5, endogenous T-cadherin of C2C12 myotubes (mouse (endogenous in C2C12)) (UniProt Q9WTR5); experiment: cell-based binding, bound adiponectin detected by Western blot of the cell lysate; mouse serum applied to differentiated C2C12 myotubes after RNAi knock-down of T-cadherin, AdipoR1, or AdipoR1 and R2
T5 sequence: T3 sequence

[11] = molecular target: T6, PA-tagged mouse T-cadherin stably expressed on CHO cells (mouse) (UniProt Q9WTR5); experiment: cell-based binding, bound adiponectin detected by Western blot of the cell lysate; mouse serum applied to CHO cells stably expressing PA-tagged receptors, 4°C, 1 hr, washed three times
T6 sequence: T3 sequence

[12] = molecular target: T7, mouse AdipoR1 expressed on HEK293 cells (mouse), Q91VH1; experiment: cell-based binding, bound adiponectin detected by Western blot of the cell lysate; adiponectin purified from mouse serum or recombinant adiponectin applied to transiently transfected HEK293 cells, 4°C, 1 hr; only the binder purified; conditions: remark: other sources report otherwise
T7 chain: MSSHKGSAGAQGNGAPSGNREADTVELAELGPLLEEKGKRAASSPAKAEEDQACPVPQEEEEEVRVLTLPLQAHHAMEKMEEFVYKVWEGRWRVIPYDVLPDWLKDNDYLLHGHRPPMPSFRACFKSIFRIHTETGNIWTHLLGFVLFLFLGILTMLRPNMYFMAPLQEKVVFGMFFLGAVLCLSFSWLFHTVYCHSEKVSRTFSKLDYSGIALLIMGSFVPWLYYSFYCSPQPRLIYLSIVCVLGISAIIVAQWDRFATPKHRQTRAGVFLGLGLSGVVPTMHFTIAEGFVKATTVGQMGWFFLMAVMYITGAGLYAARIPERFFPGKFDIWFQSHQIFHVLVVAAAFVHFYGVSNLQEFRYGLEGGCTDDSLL

[13] = molecular target: T8, PA-tagged mouse AdipoR1 transiently expressed on HEK293 cells (mouse), Q91VH1; experiment: cell-based binding, bound adiponectin detected by Western blot of the cell lysate; mouse or human serum diluted in serum-free DMEM applied to transiently transfected HEK293 cells, 4°C, 1 hr, washed three times; lysates on SDS-PAGE or native-PAGE; conditions: remark: other sources report otherwise
T8 chain: T7 chain

[14] = molecular target: T7, mouse AdipoR1 expressed on HEK293 cells …; experiment: as above; conditions: remark: other sources report otherwise
[15] = molecular target: T9, PA-tagged mouse AdipoR1 stably expressed on CHO cells (mouse), Q91VH1; experiment: cell-based binding, bound adiponectin detected by Western blot of the cell lysate; mouse serum applied to CHO cells stably expressing PA-tagged receptors, 4°C, 1 hr, washed three times; conditions: remark: other sources report otherwise
T9 chain: T7 chain

- binding [1]: no binding
- binding [2]: binds
- binding [3]: no binding
Molecule: native human adiponectin in human serum (from UniProt Q15848 19-244) (ligand)

- binding [4]: no binding
- binding [5]: binds
- binding [6]: binds
- binding [7]: no binding
- binding [8]: no binding
- binding [9]: binds
- binding [10]: binds
- binding [11]: binds
B1: native mouse adiponectin in mouse serum (ligand, UniProt Q60994 18-247, looked up)
chain: EDDVTTTEELAPALVPPPKGTCAGWMAGIPGHPGHNGTPGRDGRDGTPGEKGEKGDAGLLGPKGETGDVGMTGAEGPRGFPGTPGRKGEPGEAAYVYRSAFSVGLETRVTVPNVPIRFTKIFYNQQNHYDGSTGKFYCNIPGLYYFSYHITVYMKDVKVSLFKKDKAVLFTYDQYQEKNVDQASGSVLLHLEVGDQVWLQVYGDGDHNGLYADNVNDSTFTGFLLYHDTN
notes: adiponectin, mouse, circulating protein of serum; multimers (6-mer and HMW multimer) seen by native-PAGE; Used both as whole serum and as adiponectin purified from serum; Mixture of multimers; also called mouse serum adiponectin; native adiponectin; source: endogenous, serum of C57BL6J mice, used as serum without processing; also purified from mouse serum (Fukuda et al., 2017)

- binding [4]: no binding
- binding [5]: binds
B2: Full-length mammalian recombinant mouse adiponectin (ligand, UniProt Q60994 18-247, looked up)
chain: B1 chain
notes: adiponectin, mouse, full-length recombinant, produced in HEK293 cells; contains less 6-mer and HMW multimer than serum adiponectin; the secreted product probably lacks the signal peptide; also called recombinant adiponectin; full-length recombinant adiponectin produced in HEK293 cells; source: bought: BioVendor (RD272023100), produced in HEK293 cells

- binding [12]: no binding
- binding [13]: no binding
- binding [14]: no binding
- binding [15]: no binding
B3: native mouse adiponectin in mouse serum, Q60994 18-247 (ligand)
chain: B1 chain

- binding [12]: no binding
B4: Full-length mammalian recombinant mouse adiponectin, Q60994 18-247 (ligand)
chain: B1 chain
